Measurements as given in PubChem BioAssay AID445 (National Center for Advancing Translational Sciences (NCATS), 2006).
The whole screen tested about 110,000 compounds, of which about 40 (0.04%) were called active. Inconclusive results, whose numbers are uncertain, are shown with a selection of clear calls. The call rests on the fitted dose curve; in most records, active means well fitted curve in the direction sought with a large enough effect in the signal ratio (not every such curve was filed as active); inconclusive means small, poorly fitted or top-dose-only effect, or a change in a side signal; inactive means flat fitted curve, though single readings scatter; the % refers to the signal ratio. A potency beside an inconclusive call is a rough fit, not a confirmed value.

Test: IkB Signaling;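 on IkBa stabilization activation: 0% = basal untreated cells and 100% = reference inhibitor full response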
Details: ABC-DLBCL IkBa-CBG/CBR dual luciferase ratio (green luciferase fused to IkBa over red control in OCI-Ly3 lymphoma cells), 4 h; IkBa stabilization activation: at 57.1 µM (top of the series), scaled: untreated 0%, proteasome inhibitor 100% unless noted
In short: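 Curves were fitted separately to fusion (green), unfused (red) and ratio luminescence, then classed by r2, magnitude and activity. Cells: OCI-Ly3, 4 h compound plus doxycycline at 37C; 10 uM MG-132 defined full response.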
Potency means the concentration at half of the fitted maximal effect.

SMILES	IkBa stabilization activation	Potency
COc1cc(NC(=O)c2c3c(nc4ccccc24)C(=O)N(C2CCCCC2)C3)cc(OC)c1	inconclusive: 15.7% [signal inhibitor]	–
O=C(Nc1cccc(F)c1)c1c(F)c(F)c(F)c(F)c1F	inactive: 1.22%	–
O=C(CSc1c2c(nc3cc(Cl)ccc13)CCCC2)N1CCN(c2ccccc2)CC1	inconclusive: 2.77% [signal inhibitor]	–
COc1cccc([C@H]2Nc3ccc(S(=O)(=O)Nc4cc(C)ccc4C)cc3[C@H]3C=CC[C@H]32)c1	inconclusive: 11% [signal inhibitor]	–
Nc1nonc1C(=O)NCCNCc1cc(Br)ccc1OCc1ccccc1F	inconclusive: -2.31% [signal inhibitor]	–
COc1ccccc1OCC(=O)Nc1cc(-c2ccc(C)cc2)no1	inactive: -0.899%	–
O=C(Cn1ncc2c1-c1ccccc1OC2)Nc1nc2ccccc2s1	inconclusive: -5.23% [signal inhibitor]	–
CC(=O)c1cc(-c2ccc(F)cc2)n(CC(=O)NCc2ccc(C)cc2)c1C	inconclusive: 0.796% [signal inhibitor]	–
Cc1cc(C)c(OCC(=O)Nc2cccc(-c3nc4ncccc4o3)c2)c(Br)c1	inconclusive: 17.4% [signal inhibitor]	–
COc1ccccc1NC(=O)C1C2C=CC(O2)C1C(=O)O (centres undefined)	–	inconclusive: 31.6 µM [signal inhibitor, partial curve]
COc1cc(Cl)c(C)cc1NC(=O)NC1COc2ccccc2C1 (centres undefined)	inconclusive: -1.21% [signal inhibitor]	–
CNc1oc(Cc2cccc3ccccc23)nc1C#N	inactive: -1.56%	–
Cc1nc2c(C(=O)NCc3ccc4c(c3)OCO4)c[nH]n2c(=O)c1Cc1ccccc1F	inconclusive: -0.811% [signal inhibitor]	–
COc1cccc(-n2nnc3c(=O)n(CC(=O)NCC4CCCO4)cnc32)c1 (centres undefined)	–	inconclusive: 20 µM [signal inhibitor, partial curve]
COc1ccc(CCNC(=O)Cn2c(-c3cccs3)cc3cc(F)ccc32)cc1OC	inconclusive: 0.177% [signal inhibitor]	–
CC(=O)[C@@H]1[C@@H]2C(=O)N(Cc3ccccc3)C(=O)[C@@H]2C2c3ccccc3C=CN21 (some centres undefined)	inconclusive: 3.8% [signal inhibitor]	–
COc1ccc(NC(=O)c2c(C)oc3ccc(O)c(CN4CCCC(C)C4)c23)cc1 (centres undefined)	inconclusive: -0.243% [signal inhibitor]	–
COc1ccc(NC(=O)c2oc3ccccc3c2NC(=O)c2cc(OC)c(OC)c(OC)c2)cc1	inconclusive: -1.48% [signal inhibitor]	–
COc1ccc(CCNC(=O)CN2C(=O)COc3ccccc32)cc1OC	inconclusive: 0.891% [signal inhibitor]	–
COc1ccccc1N1CCN(c2nc3ccccc3n3nnnc23)CC1	–	inconclusive: 2 µM [signal inhibitor, full curve]
Cc1cccc(Oc2nc3c(c(=O)n(C)c(=O)n3C)n2C)c1C	inactive: -2.77%	–
Cc1cc(C)cc(OCC(=O)NCC2(N3CCOCC3)CCCCC2)c1	inconclusive: 1.15% [signal inhibitor]	–
c1cncc(-c2nnc(SCc3cccc4ccccc34)o2)c1	inconclusive: 6.08% [signal inhibitor]	–

SMILES	IkBa stabilization activation	Potency
O=C(Cn1c(SCCOc2ccccc2Cl)nc2ccccc21)N1CCCCC1	inactive: 1.45%	–
O=C(CS(=O)(=O)c1ccccc1)c1ccc2c(c1)OCCO2	inactive: 5.68%	–
Cc1ccc(S(=O)(=O)Nc2cc3c(C(=O)OCc4ccccc4)c(C)oc3c3ccccc23)cc1	inconclusive: 7.21% [signal inhibitor]	–
CCOC(=O)c1ccc(-n2c(N)c(C(=O)NCc3ccco3)sc2=S)cc1	inactive: 1.24%	–
COc1cccc(-c2nc(CS(=O)(=O)CC(=O)NCCCc3ccccc3)c(C)o2)c1	inconclusive: 1.45% [signal inhibitor]	–
CCN(CC)c1ccc(NC(=O)c2sc3nc(-c4ccccc4)cn3c2C)cc1	inconclusive: -1.66% [signal inhibitor]	–
CCOC(=O)c1cccc(NC(=O)NCc2ccc3c(c2)CCN3C(=O)CC)c1	inconclusive: 1.33% [signal inhibitor]	–
CCOC(=O)N1CCC(Nc2nc3ccccc3n3nnnc23)CC1	–	inconclusive: 1 µM [signal inhibitor, full curve]
Cn1cc(SCC(=O)Nc2nc3ccccc3s2)c2ccccc21	inconclusive: -4.04% [signal inhibitor]	–
CCc1ccc(C(=O)c2cn(CC(=O)Nc3ccc(OC)c(Cl)c3)c3nc(C)ccc3c2=O)cc1	inactive: 3.69%	–
CCCN(C(=O)NCc1noc2ccc(C)cc12)c1ccc(Cl)c(Cl)c1	inconclusive: -0.0521% [signal inhibitor]	–
CC1=C(C(=O)Nc2cccc(C(F)(F)F)c2)C(c2ccccn2)n2ncnc2N1 (centres undefined)	inactive: 2.71%	–
Cc1ccc(Cl)cc1NC(=O)C1CCCN(S(=O)(=O)c2c(C)noc2/C=C/N(C)C)C1 (centres undefined)	inconclusive: 0.164% [signal inhibitor]	–
CC1(C)Oc2ccc(NC(=O)C3COc4ccccc4O3)cc2O1 (centres undefined)	inactive: -1.23%	–
Fc1ccc(C2=NC(c3cccc(C(F)(F)F)c3)=Nc3ccccc3N2)cc1	inactive: 1.62%	–
Cc1ccc2nc(/C(C#N)=C/c3ccc(-c4ccc(F)cc4F)o3)[nH]c2c1	inconclusive: -1.55% [signal inhibitor]	–
Cc1c(CCC(=O)NCCc2ccccc2F)c(=O)oc2cc(O)ccc12	inconclusive: -1.91% [signal inhibitor]	–
O=C(Oc1ccccc1)N1CCC2(CCCN(c3ncccn3)C2)CC1	inactive: 1.56% [at 11.4 µM, scaled: untreated 0%, proteasome inhibitor 100%]	–
O=C(c1ccc(CSc2nc3ccncc3n2Cc2ccccc2F)cc1)N1CCCCC1	inconclusive: 2.75% [signal inhibitor]	–
c1ccc(CN2CC[C@@H](CNc3ncnc4ccccc34)C2)cc1	inactive: 1.29% [at 11.4 µM, scaled: untreated 0%, proteasome inhibitor 100%]	–
O=C(NCCc1ccccc1)c1cc(-c2ccccc2)nc2n[nH]c(-c3ccccc3)c12	–	inconclusive: 1.26 µM [signal inhibitor]
Cc1ccccc1NC(=O)Cn1c(=O)n(Cc2ccco2)c(=O)c2cccnc21	inactive: 1.29%	–
C=CCn1c(C#N)c(N)sc1=N	inconclusive: 5.12% [signal inhibitor]	–

SMILES	IkBa stabilization activation	Potency
CN(C)c1ccc(/C=C(\C#N)c2nc3ccccc3c(=O)[nH]2)cc1	inconclusive: -2.7% [signal inhibitor]	–
COCc1cc(=O)n2c(-c3ccc(C)cc3)n[nH]c2n1	–	inconclusive: 12.6 µM [signal inhibitor, partial curve]
Cc1nc2cnc(N3CCOCC3)nc2n(Cc2cccs2)c1=O	inactive: 2.71% [at 11.4 µM, scaled: untreated 0%, proteasome inhibitor 100%]	–
Cc1ccc(NC(=O)Cn2c(=O)nc(-c3ccccc3F)c3cc(Cl)ccc32)c(Br)c1	inactive: -0.0193%	–
CCCCc1ccc(-c2ccc(C)cc2O)nc1	inactive: 16.7%	–
C=CCn1c(SCC(=O)NC2CCS(=O)(=O)C2)nc2scc(C3CC3)c2c1=O (centres undefined)	inactive: 0.121%	–
O=C(CSc1nc(O)cc(=O)n1-c1ccccc1)N1CCCCC1	inconclusive: 12.9% [signal inhibitor]	–
COc1cc2nc(SCc3ccc(F)cc3)n3nc(CCn4c(C)nc5ccccc54)nc3c2cc1OC	–	inconclusive: 39.8 µM [signal activator]
CC(=O)Nc1ccc(NC(=O)c2ccco2)cc1	inactive: 0.803%	–
C=CCn1c(SCC(=O)N2CCN(c3ccc(F)cc3)CC2)nnc1-c1ccco1	inconclusive: 6.76% [signal inhibitor]	–
CCC(Sc1nc(C)cc(=O)[nH]1)C(=O)Nc1sc2c(c1C#N)CCCC2 (centres undefined)	inconclusive: -2.99% [signal inhibitor]	–
CCOC(=O)c1cnc(-n2nc(C)cc2C)nc1NC(C)c1ccccc1 (centres undefined)	inconclusive: -8.3% [signal inhibitor]	–
COc1ccc(CCCc2nnc(SCC(=O)Nc3ccc(C)c(C)c3)o2)cc1	inconclusive: 3.11% [signal inhibitor]	–
CC(C)NS(=O)(=O)c1ccc(OCC(=O)N2CCN(c3ccccc3F)CC2)cc1	inconclusive: 6.25% [signal inhibitor]	–
NC(=O)c1ccsc1NC(=O)COc1ccccc1	–	inconclusive: 20 µM [signal inhibitor, partial curve]
O=C(c1ccc(CS(=O)c2ccccc2Cl)o1)N1CCN(c2ccccc2F)CC1 (centres undefined)	inconclusive: 1.9% [signal inhibitor]	–
COc1cccc(C(=O)N(Cc2cccc(Cl)c2)Cc2ccco2)c1	inconclusive: 0.348% [signal inhibitor]	–
c1ccc2c(c1)CCCN2c1nc2ccccc2n2cnnc12	inconclusive: 8.49% [signal inhibitor]	–
N#CC1=C(N)SC(N)=C(C#N)C1CCc1ccccc1	inconclusive: -8.58% [signal inhibitor]	–
COc1cc(C(=O)NCCSc2c(-c3ccccc3)[nH]c3ccccc23)cc(OC)c1OC	inconclusive: 7.92% [signal inhibitor]	–
COc1ccc(N2CCN(C(c3cccs3)C(C)NC(=O)c3ccco3)CC2)cc1 (centres undefined)	inconclusive: 4.14% [signal inhibitor]	–
C=CC(=O)OCCOCCOC(=O)C=C	–	inconclusive: 15.8 µM [rising, partial curve]
CC1CCN(S(=O)(=O)c2ccc3c(c2)N(CC(=O)N2CCN(c4ccc(Cl)cc4)CC2)C(=O)CO3)CC1	inconclusive: 0.367% [signal inhibitor]	–
